Measured values as given in PubChem BioAssay AID463173 (ICCB-Longwood Screening Facility, Harvard Medical School, 2010).
Out of some 52,000 compounds screened, about 1,700 (3.3%) were called active. Cut-off read from the data, not from the text of the source: active = survival mostly below about 52% (no sharp cut-off); inactive = mostly above about 56%. This is one part of the list.

What follows are molecules tested on Wild type (assay: growth inhibition of S. aureus wild type versus tarO mutant, primary screen, teichoic acid synthesis inhibitors, RN4220, OD600 (AID 463173)). Conditions: S. aureus RN4220 wild type/DeltatarO growth, OD600, 18 h, stronger effect = lower value, screened at 18.75 µg/mL (by protocol).
In the case of `O=C(CSc1nnc(CNC(=O)c2c(F)cccc2Cl)o1)Nc1cccc(F)c1`, the survival is reported as inactive: 83%.
For `CCOc1ccc(NS(=O)(=O)c2ccc(NC(=O)N3CCCC3)cc2)cc1`, the survival was inactive: 73%.
For `O=C(Nc1ccc2nn(-c3ccccc3)nc2c1)c1ccc(-c2cccc(Cl)c2)o1`, the survival was inactive: 110%.
With `CCOC(=O)/C(C)=C1\NC(C)(C)Cc2ccccc21` the survival was inactive: 109%.
For `CCOc1ccc(C(=O)N2CCN(Cc3cc(=O)n4nc(-c5ccccc5Cl)sc4n3)CC2)cc1`, the survival was inactive: 58%.
`COc1ccccc1NC(=O)C1=C(C)Nc2nc(SCc3cc(C)ccc3C)nn2C1c1ccccc1` (stereo not drawn) was tested, and the survival was inactive: 135%.
For `O=C(c1cccs1)N1CCCc2cc(NS(=O)(=O)c3ccc(F)cc3)ccc21`, the survival was inactive: 131%.
For `CC(C)Cn1c(/C=C/c2ccc(F)cc2)nc2ccccc21`, the survival was active: -12%.
In the case of `COCCCNC(=O)CCc1c(C)nc2cc(-c3ccc(Cl)cc3)nn2c1C`, the survival is reported as inactive: 121%.
`O=C(c1ccc2c(=O)n(CCc3ccccc3)c(=O)[nH]c2c1)N1CCN(c2ccc(Cl)cc2)CC1` was tested, and the survival was inactive: 60%.
With `CCn1c(C)c(C)c2cc(C(=O)NCCc3ccc(C)cc3)ccc21` the survival was inactive: 80%.
`Cc1ccc(C)c(NC(=O)c2cc(=O)c3cc(C)cc(C)c3o2)c1` was tested, and the survival was inactive: 84%.
For `Cc1ccc(NC(=O)Cn2c(=O)ccc3cc(S(=O)(=O)N4CCC(C)CC4)ccc32)cc1Cl`, the survival was inactive: 88%.
In the case of `COc1cccc(NC(=O)CCNC(=O)Cn2ccc3ccccc3c2=O)c1`, the survival is reported as inactive: 70%.
In the case of `COc1ccc(N(C)C(=O)c2ccc3c(c2)nnn3C)cc1`, the survival is reported as inactive: 111%.
`Cc1ccccc1CS(=O)(=O)Cc1ccc(C(=O)NCc2ccc(F)cc2)o1` was tested, and the survival was inactive: 60%.
For `CC(C)C(=O)OCc1cc(=O)n2nc(C3CCCCC3)sc2n1`, the survival was inactive: 76%.
For `CCc1ccc(NCc2cc3cc4c(cc3n(CC(=O)Nc3ccc(F)cc3)c2=O)OCCO4)cc1`, the survival was inactive: 45%.
For `COc1ccc(CNC(=O)C2CCN(S(=O)(=O)c3cccc4nonc34)CC2)cc1OC`, the survival was inactive: 77%.
In the case of `Cc1ccc(NC(=O)CSc2nnc(N)s2)c(C)c1`, the survival is reported as inactive: 131%.
For `CCCCNC(=O)CCc1c(C)nc2c(c(C)nn2-c2ccccc2)c1C`, the survival was inactive: 81%.
With `CCN(CC)c1ccc(C2C(C(N)=O)=C(C)Nc3ncnn32)cc1` (stereo not drawn) the survival was inactive: 53%.
For `Cn1ccnc1SCC(=O)Nc1cc(Cl)ccc1Cl`, the survival was inactive: 66%.
In the case of `Cc1ccc(NC(=O)C2CCCN2S(=O)(=O)c2cccc3cccnc23)cc1C` (stereo not drawn), the survival is reported as inactive: 70%.
For `Cc1cccc(CS(=O)(=O)c2ncc(Cl)c(C(=O)NCc3ccccc3)n2)c1`, the survival was inactive: 27%.
In the case of `COc1ccccc1N1CCN(C(CNC(=O)C(=O)NCCc2ccccc2)c2cccnc2)CC1` (stereo not drawn), the survival is reported as inactive: 81%.
In the case of `O=C(NCCc1ccccc1)c1cc(Sc2ccc(F)cc2F)nc2ccccc12`, the survival is reported as inactive: 88%.
`Cc1ccccc1CN1CCCN(CC(=O)Nc2c(C)cccc2C)S1(=O)=O` was tested, and the survival was inactive: 66%.
In the case of `COc1cccc(OCc2nc3ccccc3n2CCOc2cccc(C)c2)c1`, the survival is reported as inactive: 73%.
With `N#Cc1cnc(SCc2ccccc2)nc1N` the survival was inactive: 98%.
For `Fc1ccc(CNc2nc(-c3ccccc3)cc(C(F)(F)F)n2)cc1`, the survival was active: -3%.
For `CCC(C(=O)Nc1ccc(C(C)=O)cc1)n1c(C)c2cnn(-c3ccccc3)c(=O)c2c1C` (stereo not drawn), the survival was inactive: 92%.
`COc1ccc(NS(=O)(=O)c2ccc3[nH]c4c(c3c2)CCCCCC4)cc1` was tested, and the survival was active: -4%.
With `Cn1c(=O)c2c(nc(SCC(=O)Nc3ccc(F)cc3)n2Cc2ccccc2)n(C)c1=O` the survival was inactive: 70%.
With `CCc1ccc(C2c3c(oc4ccc(C)cc4c3=O)C(=O)N2c2nc(C)c(C)s2)cc1` (stereo not drawn) the survival was inactive: 134%.
In the case of `O=C(Cn1cnc2scc(-c3ccccc3)c2c1=O)NCc1ccco1`, the survival is reported as inactive: 108%.
With `CCOc1cc(C2c3c(-c4ccccc4O)n[nH]c3C(=O)N2CCc2ccccc2)ccc1O` (stereo not drawn) the survival was inactive: 81%.
`CNC(=O)COc1ccc(Nc2nnc(-c3ccc(C)c(S(=O)(=O)NC(C)(C)C)c3)c3ccccc23)cc1` was tested, and the survival was inactive: 98%.
With `COc1cc(NC(=O)Cn2cc(S(=O)(=O)c3ccccc3)c(=O)c3ccccc32)cc(OC)c1` the survival was inactive: 78%.
With `COc1cccc(-c2ccc3c(N)c(C(=O)Nc4ccc(C)c(F)c4)sc3n2)c1` the survival was inactive: 110%.
In the case of `COc1ccc(-c2cc(C(F)(F)F)nc(SCCC(=O)Nc3c(C)cccc3C)n2)cc1`, the survival is reported as inactive: 77%.
For `Cc1ccc(OCC(=O)Nc2ccc(C(=O)OCc3cc(=O)n4c(C)csc4n3)cc2)cc1`, the survival was inactive: 136%.
In the case of `COc1ccc(-c2onc(C)c2C)cc1S(=O)(=O)NC1CCC(C)CC1` (stereo not drawn), the survival is reported as inactive: 56%.
In the case of `O=C(Nc1ccc(F)cc1F)c1ccc(-n2cnnc2)cc1`, the survival is reported as inactive: 69%.
`Cc1cccc(NC(=O)CSc2cc(C)c3ccccc3n2)c1` was tested, and the survival was inactive: 78%.
In the case of `Cc1cc(-n2c(C)nc3ccccc3c2=O)ccc1NC(=O)c1cccc([N+](=O)[O-])c1`, the survival is reported as inactive: 83%.
In the case of `Cc1ccc(-n2c(=O)c3oc4ccccc4c3n(CC(=O)Nc3ccccc3)c2=O)cc1C`, the survival is reported as inactive: 75%.
For `Cc1ccc(Cn2c(CNC(=O)c3ccccc3Br)nc3cccnc32)cc1`, the survival was inactive: 129%.
`CCc1ccccc1NC(=O)Cc1c(C(=O)O)[nH]c2ccc(Cl)cc12` was tested, and the survival was inactive: 73%.
In the case of `COc1ccc(N2CCN(C(=O)Nc3cccc(C(F)(F)F)c3)CC2)cc1`, the survival is reported as inactive: 141%.
`CC(C)CNC(=O)C1=CC(c2ccc3c(c2)OCO3)=NS(=O)(=O)N1C` was tested, and the survival was inactive: 83%.
`COC(=O)CSc1nnc(CNc2ccc(Cl)cc2)n1-c1ccc(OC)cc1` was tested, and the survival was inactive: 105%.
For `Oc1c(C(c2ccccc2)N2CCN(c3ccccc3)CC2)sc2nc(-c3ccco3)nn12` (stereo not drawn), the survival was inactive: 121%.
`O=C(NCCc1ccccc1)C(=O)Nc1cccc(Br)c1` was tested, and the survival was inactive: 89%.
With `CCOC(=O)c1c(NC(=O)c2cc(-c3ccc(OC)cc3)on2)sc(C)c1C` the survival was inactive: 76%.
`O=C(CSc1nc(=O)[nH]c2c1CCC2)NCc1ccccc1` was tested, and the survival was inactive: 60%.
For `Cn1c(CCNC(=O)c2ccco2)nc2cc(NC(=O)COc3ccc(Cl)cc3)ccc21`, the survival was inactive: 98%.
With `O=C(CN(c1ccccn1)S(=O)(=O)c1ccccc1)N=Nc1c(O)[nH]c2ccccc12` the survival was inactive: 108%.
With `Cc1ccc(C(=O)COC(=O)CCC(=O)Nc2ccc(Oc3ccccc3)cc2)cc1C` the survival was inactive: 71%.
`Cc1ccc(Cl)cc1N1CCN(C(=O)C2CCN(Cc3nc(-c4cccc(Cl)c4)oc3C)CC2)CC1` was tested, and the survival was active: -4%.
`COc1ccc(CNC(=O)Cc2csc3nc(-c4ccc(C)cc4)cn23)cc1` was tested, and the survival was inactive: 69%.
For `COC(=O)CC1Oc2ccccc2-n2cc(-c3ccc(Cl)cc3)nc21` (stereo not drawn), the survival was inactive: 101%.
In the case of `Cc1ccccc1C(=O)Nc1nnc(S(=O)(=O)N2CCCCCC2)s1`, the survival is reported as inactive: 63%.
With `CCOC(=O)c1ccc(Nc2cc(-c3ccccc3)nc(C)n2)cc1` the survival was inactive: 83%.
In the case of `COc1ccc(-n2nc(C(=O)NCCc3cccc(C)c3)c3c4ccccc4n(C)c3c2=O)cc1Cl`, the survival is reported as inactive: 78%.
In the case of `O=C(c1c[nH]c2c(F)cccc2c1=O)N1CCNCC1`, the survival is reported as inactive: 94%.
With `CCOc1ccc2[nH]c(=O)c(CN(C(=S)NCc3ccco3)C3CCCC3)cc2c1` the survival was inactive: 133%.
In the case of `Cc1cc(C)cc(N(CC(=O)NCc2ccccc2Cl)S(=O)(=O)c2c(C)noc2C)c1`, the survival is reported as inactive: 81%.
`O=C(Cn1nc(-c2ccccc2)ccc1=O)Nc1ccc(N2CCN(C(=O)c3ccccc3)CC2)cc1` was tested, and the survival was inactive: 97%.
In the case of `CCc1nn2c(=O)cc(COC(=O)C(c3ccccc3)c3ccccc3)nc2s1`, the survival is reported as inactive: 90%.
`Cc1cccc(-c2nc(SCC(=O)Nc3ccc4c(c3)OCCO4)c(-c3ccccc3)[nH]2)c1` was tested, and the survival was inactive: 75%.
`CCOC(=O)Cn1c(=O)n(-c2ccccc2OC)c2nc(-c3ccccc3C)nc(C(N)=O)c21` was tested, and the survival was inactive: 63%.
With `O=C(COc1ccccc1)Nc1ccccc1C(=O)OCc1cc(=O)n2nc(C3CC3)sc2n1` the survival was inactive: 71%.
`O=C(O)c1cccc(N2C(=O)c3cccnc3C2=O)c1` was tested, and the survival was inactive: 90%.
In the case of `CCOCCc1nn2c(=O)cc(COC(=O)C(CC)c3ccccc3)nc2s1` (stereo not drawn), the survival is reported as active: 14%.
`Cc1nnc(N2CCN(c3ccccc3F)CC2)c2c1nnn2Cc1ccccc1` was tested, and the survival was inactive: 87%.
`Cc1cccc(C(=O)Nc2ccccc2SCc2cc(=O)c3cccc(C)c3[nH]2)c1` was tested, and the survival was inactive: 82%.
For `CCOc1ccc(NC(=O)CC2C(=O)N(c3cccc(C)c3)C(=O)N2Cc2cccnc2)cc1` (stereo not drawn), the survival was inactive: 47%.
`CCOc1ccc(NC(=O)Cn2c(=O)n(CCC(=O)NCCc3ccccc3)c(=O)c3ccccc32)cc1` was tested, and the survival was inactive: 66%.
For `Cc1ccc2occ(-c3cc(-c4ccc(Cl)cc4)nc4c3COc3ccccc3-4)c(=O)c2c1`, the survival was inactive: 86%.
For `Cc1ccc(N(C)C(=O)C2CCCN(c3ncnc4c3nc3n4CCCCC3)C2)cc1C` (stereo not drawn), the survival was inactive: 127%.
With `Cc1ccc(Cn2c(=O)n(Cc3ccccc3Cl)c(=O)c3ccccc32)cc1` the survival was inactive: 56%.
`CCCCc1nn2c(=O)cc(COC(=O)c3ccc(NC(=O)C4CCCCC4)cc3)nc2s1` was tested, and the survival was inactive: 77%.
For `CCCn1cc(S(=O)(=O)c2ccc(CC)cc2)c(=O)c2ccccc21`, the survival was inactive: 86%.
`Cc1cccc(N2CCN(C3(c4ccccc4)C(=O)c4ccccc4C3=O)CC2C)c1` (stereo not drawn) was tested, and the survival was inactive: 141%.
For `Cc1ccc(-c2nc3cc(Cl)ccc3o2)cc1NC(=O)COc1ccc(F)cc1`, the survival was inactive: 90%.
With `Cc1ccc(C(c2sc3nc(-c4ccco4)nn3c2O)N2CCN(Cc3ccccc3)CC2)cc1` (stereo not drawn) the survival was inactive: 121%.
`COc1ccccc1CNC(=O)c1cnn2c(C)c(Cc3ccc(F)cc3)c(C)nc12` was tested, and the survival was inactive: 88%.
